{
  "source": "the supplement of paper PMC10037445",
  "key": {"[1]": {"tested_on": "RAW-Dual", "test": "IRF Lucia reporter activity, fold change vs agonist alone; cytotoxicity flag (confluency mask): not cytotoxic; higher = enhanced IRF activity", "outline": "(§1)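 Cytotoxic wells were those whose IncuCyte confluency was below 70% of agonist controls in both mask sets. The cells were RAW-Dual macrophages at 50,000 cells/well in DMEM on 384-well plates, dosed with 50 nL of library stock by pin tool, stimulated with a PRR agonist 1 h later, and kept at 37 °C, 5% CO2 for 20 hours. IRF and NF-κB reporter activity, as fold change over agonist-alone wells, came from supernatant read by QuantiLuc luminescence and QuantiBlue absorbance, respectively.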"}, "[2]": {"tested_on": "RAW-Dual", "test": "IRF Lucia reporter activity, fold change vs agonist alone; higher = enhanced IRF activity", "conditions": "library stock concentration (final ~1000-fold dilution): 10 mM, agonist: MPLA (TLR4) […]", "outline": "as §1"}, "[3]": {"tested_on": "RAW-Dual", "test": "IRF Lucia reporter activity, fold change vs agonist alone; cytotoxicity flag (confluency mask): cytotoxic (confluency <70% of control); higher = enhanced IRF activity", "outline": "as §1"}, "[4]": {"conditions": "agonist: 3'3'-cGAMP (STING) 10 ug/mL"}, "[5]": {"conditions": "cytotoxicity flag (confluency mask): not cytotoxic"}},
  "note": "“And” between values parts separate entries of the source, which are not always exact repeats. Equal entries are not always repeated. ± gives the standard deviation of the averaged measurements. Over roughly 2,900 compounds, “IRF Lucia reporter activity, fold change vs agonist alone” has its median near 0.9; the highest 2% begin near 2.8. This is one part of the list.",
  "data": [
    {"smiles": "Cc1ccc2c(c1)C(=O)C1(O)CCN(c3ccccc3)C1=N2", "note": "(stereo unspecified) (library stock concentration (final ~1000-fold dilution): 10 mM)", "values": [
      {"measurement": "IRF Lucia reporter activity", "setting": "[1]; [4]", "value": 0.478},
      {"measurement": "IRF Lucia reporter activity", "setting": "[1]; agonist: LPS (TLR4) 0.1 ug/mL", "value": 1.31}
    ]},
    {"smiles": "Cc1ccc2c(c1)C(=O)C1(O)CCN(c3ccccc3)C1=N2", "note": "(stereo unspecified)", "values": [
      {"measurement": "IRF Lucia reporter activity", "setting": "[2]; [5]", "value": 0.995}
    ]},
    {"smiles": "CCCCCCCCCCCCCCCC(=O)NC(CCSC)C(=O)NCC(=O)NC(Cc1ccc(O)cc1)C(=O)NC(CCC(N)=O)C(=O)NC(CCCCN)C(=O)NC(CCCCN)C(=O)NC(CC(C)C)C(=O)NC(CCCNC(=N)N)C(=O)NC(CO)C(=O)NC(CCSC)C(=O)NC(C(=O)NC(CC(=O)O)C(=O)NC(CCCCN)C(=O)NC(Cc1ccc(O)cc1)C(=O)NC(CCCNC(=N)N)C(=O)NC(CC(C)C)C(=O)O)C(C)O", "note": "(stereo unspecified) (library stock concentration (final ~1000-fold dilution): 10 mM)", "values": [
      {"measurement": "IRF Lucia reporter activity", "setting": "[3]; [4]", "value": 0.218},
      {"measurement": "IRF Lucia reporter activity", "setting": "[3]; agonist: LPS (TLR4) 0.1 ug/mL", "value": 0.995}
    ]},
    {"smiles": "C=CC(=O)Nc1cccc(Oc2nc(Nc3ccc(N4CCN(C)CC4)cc3OC)ncc2Cl)c1", "note": "(library stock concentration (final ~1000-fold dilution): 10 mM)", "values": [
      {"measurement": "IRF Lucia reporter activity", "setting": "[1]; [4]", "value": 0.763},
      {"measurement": "IRF Lucia reporter activity", "setting": "[1]; agonist: LPS (TLR4) 0.1 ug/mL", "value": 0.982}
    ]},
    {"smiles": "C=CC(=O)Nc1cccc(Oc2nc(Nc3ccc(N4CCN(C)CC4)cc3OC)ncc2Cl)c1", "values": [
      {"measurement": "IRF Lucia reporter activity", "setting": "[2]; [5]", "value": 0.889}
    ]},
    {"smiles": "O=C(/C=C/c1ccc(O)c(O)c1)OCCc1ccccc1", "values": [
      {"measurement": "IRF Lucia reporter activity", "setting": "[2]; cytotoxicity flag (confluency mask): cytotoxic (confluency <70% of control)", "value": "0.381 ± 0.45"}
    ]},
    {"smiles": "O=C(/C=C/c1ccc(O)c(O)c1)OCCc1ccccc1", "note": "(library stock concentration (final ~1000-fold dilution): 10 mM)", "values": [
      {"measurement": "IRF Lucia reporter activity", "setting": "[3]; [4]", "value": "0.0122 and 0.0159"},
      {"measurement": "IRF Lucia reporter activity", "setting": "[3]; agonist: LPS (TLR4) 0.1 ug/mL", "value": "0.0688 and 0.174"}
    ]},
    {"smiles": "CCCC(Nc1nc(-c2ccc(NC(=O)NCC)c(OC)c2)ncc1C)c1cccnc1", "note": "(stereo unspecified) (library stock concentration (final ~1000-fold dilution): 10 mM)", "values": [
      {"measurement": "IRF Lucia reporter activity", "setting": "[1]; [4]", "value": 0.151},
      {"measurement": "IRF Lucia reporter activity", "setting": "[1]; agonist: LPS (TLR4) 0.1 ug/mL", "value": 1.32}
    ]},
    {"smiles": "CCCC(Nc1nc(-c2ccc(NC(=O)NCC)c(OC)c2)ncc1C)c1cccnc1", "note": "(stereo unspecified)", "values": [
      {"measurement": "IRF Lucia reporter activity", "setting": "[2]; [5]", "value": 1.7}
    ]},
    {"smiles": "CC(C)=CCC/C(C)=C/Cc1c(O)c(CC=C(C)C)c2c(c1O)C(=O)C1=CC3CC4C(C)(C)OC(C/C=C(/C)C(=O)O)(C3=O)C14O2", "note": "(stereo unspecified) (library stock concentration (final ~1000-fold dilution): 10 mM)", "values": [
      {"measurement": "IRF Lucia reporter activity", "setting": "[3]; [4]", "value": 0.0207},
      {"measurement": "IRF Lucia reporter activity", "setting": "[3]; agonist: LPS (TLR4) 0.1 ug/mL", "value": 0.666}
    ]},
    {"smiles": "COc1cc2c3cc1Oc1c(OC)c(OC)cc4c1[C@@H](Cc1ccc(O)c(c1)Oc1ccc(cc1)C[C@@H]3N(C)CC2)N(C)CC4", "note": "(library stock concentration (final ~1000-fold dilution): 10 mM)", "values": [
      {"measurement": "IRF Lucia reporter activity", "setting": "[1]; [4]", "value": 1.09},
      {"measurement": "IRF Lucia reporter activity", "setting": "[1]; agonist: LPS (TLR4) 0.1 ug/mL", "value": 1.09}
    ]},
    {"smiles": "CCOC(=O)Nc1cc(-c2ccc(C)c(NS(C)(=O)=O)c2)nn2c(C)nnc12", "values": [
      {"measurement": "IRF Lucia reporter activity", "setting": "[2]; [5]", "value": 0.157}
    ]},
    {"smiles": "CCOC(=O)Nc1cc(-c2ccc(C)c(NS(C)(=O)=O)c2)nn2c(C)nnc12", "note": "(library stock concentration (final ~1000-fold dilution): 10 mM)", "values": [
      {"measurement": "IRF Lucia reporter activity", "setting": "[1]; [4]", "value": 0.315},
      {"measurement": "IRF Lucia reporter activity", "setting": "[1]; agonist: LPS (TLR4) 0.1 ug/mL", "value": 0.183}
    ]},
    {"smiles": "CC1CCN(C(=O)CC#N)CC1N(C)c1ncnc2[nH]ccc12.O=C(O)CC(O)(CC(=O)O)C(=O)O", "note": "(stereo unspecified)", "values": [
      {"measurement": "IRF Lucia reporter activity", "setting": "[2]; [5]", "value": 0.557}
    ]},
    {"smiles": "CC1CCN(C(=O)CC#N)CC1N(C)c1ncnc2[nH]ccc12.O=C(O)CC(O)(CC(=O)O)C(=O)O", "note": "(stereo unspecified) (library stock concentration (final ~1000-fold dilution): 10 mM)", "values": [
      {"measurement": "IRF Lucia reporter activity", "setting": "[1]; [4]", "value": 0.221},
      {"measurement": "IRF Lucia reporter activity", "setting": "[1]; agonist: LPS (TLR4) 0.1 ug/mL", "value": 0.622}
    ]},
    {"smiles": "CN(C)C/C=C/C(=O)Nc1cc2c(Nc3ccc(F)c(Cl)c3)ncnc2cc1OC1CCOC1.O=C(O)/C=C\\C(=O)O.O=C(O)/C=C\\C(=O)O", "note": "(stereo unspecified) (library stock concentration (final ~1000-fold dilution): 10 mM)", "values": [
      {"measurement": "IRF Lucia reporter activity", "setting": "[3]; [4]", "value": 0.0121},
      {"measurement": "IRF Lucia reporter activity", "setting": "[3]; agonist: LPS (TLR4) 0.1 ug/mL", "value": 0.0196}
    ]},
    {"smiles": "CN1C(=O)C(C)(C)Oc2c(-c3cn(C)c(=O)c4[nH]ccc34)cc(S(C)(=O)=O)cc21", "note": "(library stock concentration (final ~1000-fold dilution): 10 mM)", "values": [
      {"measurement": "IRF Lucia reporter activity", "setting": "[3]; [4]", "value": 0.252},
      {"measurement": "IRF Lucia reporter activity", "setting": "[3]; agonist: LPS (TLR4) 0.1 ug/mL", "value": 0.0917}
    ]},
    {"smiles": "CN1CCC(=C2c3ccccc3CCc3cccnc32)CC1.O=C(O)/C=C\\C(=O)O.O=C(O)/C=C\\C(=O)O", "note": "(library stock concentration (final ~1000-fold dilution): 10 mM)", "values": [
      {"measurement": "IRF Lucia reporter activity", "setting": "[1]; [4]", "value": 0.83},
      {"measurement": "IRF Lucia reporter activity", "setting": "[1]; agonist: LPS (TLR4) 0.1 ug/mL", "value": 0.866}
    ]},
    {"smiles": "CN1CCC(=C2c3ccccc3CCc3cccnc32)CC1.O=C(O)/C=C\\C(=O)O.O=C(O)/C=C\\C(=O)O", "values": [
      {"measurement": "IRF Lucia reporter activity", "setting": "[2]; [5]", "value": 0.927}
    ]},
    {"smiles": "O=C(NCCO)c1cccc(-c2cc(Nc3ccc(OC(F)(F)F)cc3)ncn2)c1", "note": "(library stock concentration (final ~1000-fold dilution): 10 mM)", "values": [
      {"measurement": "IRF Lucia reporter activity", "setting": "[1]; [4]", "value": 0.724},
      {"measurement": "IRF Lucia reporter activity", "setting": "[1]; agonist: LPS (TLR4) 0.1 ug/mL", "value": 2.05}
    ]},
    {"smiles": "O=C(NCCO)c1cccc(-c2cc(Nc3ccc(OC(F)(F)F)cc3)ncn2)c1", "values": [
      {"measurement": "IRF Lucia reporter activity", "setting": "[2]; [5]", "value": 1.94}
    ]},
    {"smiles": "O=C(CS(=O)Cc1ccco1)NC/C=C\\COc1cc(CN2CCCCC2)ccn1", "note": "(stereo unspecified) (library stock concentration (final ~1000-fold dilution): 10 mM)", "values": [
      {"measurement": "IRF Lucia reporter activity", "setting": "[1]; [4]", "value": 1.09},
      {"measurement": "IRF Lucia reporter activity", "setting": "[1]; agonist: LPS (TLR4) 0.1 ug/mL", "value": 1.09}
    ]},
    {"smiles": "O=C(CS(=O)Cc1ccco1)NC/C=C\\COc1cc(CN2CCCCC2)ccn1", "note": "(stereo unspecified)", "values": [
      {"measurement": "IRF Lucia reporter activity", "setting": "[2]; [5]", "value": 1}
    ]},
    {"smiles": "CC(C)COc1ccc(CNC(=O)N(Cc2ccc(F)cc2)C2CCN(C)CC2)cc1.CC(C)COc1ccc(CNC(=O)N(Cc2ccc(F)cc2)C2CCN(C)CC2)cc1.O=C(O)C(O)C(O)C(=O)O", "note": "(library stock concentration (final ~1000-fold dilution): 10 mM)", "values": [
      {"measurement": "IRF Lucia reporter activity", "setting": "[3]; [4]", "value": 0.0797},
      {"measurement": "IRF Lucia reporter activity", "setting": "[3]; agonist: LPS (TLR4) 0.1 ug/mL", "value": 0.0191}
    ]},
    {"smiles": "CCn1cc(-c2cccc(C(F)(F)F)c2)c2sc(C(=N)NC3CCS(=O)(=O)CC3)cc2c1=O", "note": "(library stock concentration (final ~1000-fold dilution): 10 mM)", "values": [
      {"measurement": "IRF Lucia reporter activity", "setting": "[3]; [4]", "value": 0.678},
      {"measurement": "IRF Lucia reporter activity", "setting": "[3]; agonist: LPS (TLR4) 0.1 ug/mL", "value": 0.275}
    ]}
  ]
}
